Laboratory results taken from PubChem BioAssay AID1508642 (National Center for Advancing Translational Sciences (NCATS), 2021).
In all, about 43,000 compounds went through this assay and about 200 (0.47%) were called active. About 12% were inconclusive and are not listed. The call rests on the fitted dose curve; in most records, active means well fitted cell-killing curve with a large enough effect; inconclusive means small, poorly fitted or top-dose-only effect, or effect the other way; inactive means flat fitted curve, though single readings scatter. Some of the results follow.

Assay: Cell viability qHTS assay in S16 Pmp22-F2sN cells; further: nearly all actives have a fitted effect of over 65% in size
Conditions: S16 Pmp22-F2sN Schwann cells viability, CellTiter-Glo, 24 h; series mostly up to 57.5 µM; activity change, negative = cytotoxicity: at the top concentration
Procedure, shortened: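 Used to flag compounds lowering reporter output through toxicity, this quantitative HTS measures ATP-based CellTiter-Glo luminescence in S16 Pmp22-F2sN Schwann cells after 24 h compound exposure at 37C.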
On the % scale 0 is the no-effect control and ±100 the full control effect.

Row | Compound | activity change, negative = cytotoxicity
1 | COc1ccc(S(=O)(=O)n2nc(-c3ccco3)nc2NCc2ccc(OC)c(OC)c2)cc1 | inactive: 2.64%
2 | COc1ccc(N(C(=O)c2ccc(Cl)cc2)S(=O)(=O)c2ccc(C)cc2)cc1 | inactive: -17%
3 | Cc1ccc(N2CC(c3nnc(Cc4ccccc4Cl)o3)CC2=O)cc1 (stereo unspecified) | inactive: -0.654%
4 | COc1ccccc1Cc1nc2ccccc2nc1SCC(=O)Nc1ccccc1C(F)(F)F | inactive: -7.23%
5 | COc1ccc(S(=O)(=O)c2cc3cc(OC)ccc3oc2=O)cc1 | inactive: 6.29%
6 | CCN1CCN(c2c(S(=O)(=O)c3ccc(Cl)cc3)cnc3ccccc23)CC1 | inactive: -20.5%
7 | Cc1ccc(NC(=O)Cn2c(=O)n(CCCS(=O)(=O)C3CCCCC3)c(=O)c3ccccc32)cc1F | inactive: 18%
8 | COc1ccc(C(=O)c2oc3ccccc3c2NC(=O)COc2ccc(C)cc2)cc1 | inactive: -8.75%
9 | Cc1ccc(S(=O)(=O)c2nc(-c3ccc(F)cc3)oc2SCC(=O)c2ccccc2)cc1 | inactive: -20.1%
10 | CCc1ccc2oc(-c3cccc(NC(=O)C(C)(C)Oc4ccc(Br)cc4)c3)nc2c1 | inactive: 21.7%
11 | Cc1cc(C)cc(Nc2ncnc3onc(-c4ccc(F)cc4)c23)c1 | inactive: -3.48%
12 | CCOc1ccc(-n2cc(-c3ccccc3)c3c(N4CCC(C)CC4)ncnc32)cc1 | inactive: 3.23%
13 | CCOc1ccccc1NC(=O)C(=O)c1cc(C)n(-c2ccc(F)cc2)c1C | inactive: 11%
14 | COc1ccc(-c2nnc(Nc3ccc(OC)c(C(N)=O)c3)c3ccccc23)cc1 | inactive: -6.31%
15 | CCS(=O)(=O)c1nc(S(=O)(=O)c2ccc(C)cc2)c(NC(C)c2ccccc2)s1 (stereo unspecified) | inactive: -16%
16 | COc1ccc(Cl)cc1NC(=O)Cn1c(=O)n(CCCC(=O)NCCc2ccc(OC)c(OC)c2)c(=O)c2ccccc21 | inactive: -13.4%
17 | O=C(CCSCc1cccc(F)c1)NCc1ccccc1 | inactive: 0.516%
18 | CCOc1ccc(CNC(=O)c2cc3c(s2)-c2ccccc2OC3)cc1 | inactive: 1.19%
19 | COc1cc(NC(=O)NC(C)c2c(-n3cccc3)sc3c2CCN(C)C3)cc(OC)c1 (stereo unspecified) | inactive: -1.9%
20 | COc1cccc(-n2c(SCC(=O)N3CCCc4ccccc43)nc3c([nH]c4ccccc43)c2=O)c1 | inactive: 8.4%
21 | CCc1ccc(S(=O)(=O)NCc2nc3cccnc3n2Cc2ccccc2Cl)cc1 | inactive: -9.84%
22 | CCCOc1ccc(CNC(=O)Cn2cc3c(n2)-c2c(oc(C(=O)N4CCOCC4)c2C)CC3)cc1 | inactive: -0.478%
23 | COc1cc(CN(C(=O)COc2ccccc2Cl)c2ccccn2)cc(OC)c1OC | inactive: 0.949%
24 | CCn1c(C)c(C)c2cc(C(=O)N3CCN(c4cccc(C)c4C)CC3)ccc21 | inactive: 2.51%
25 | O=C(CSc1cn(CCNC(=O)c2ccccc2F)c2ccccc12)Nc1ccc(F)cc1 | inactive: 8.12%
26 | COc1cccc(N2C(=O)CSC23C(=O)N(CC(=O)Nc2cccc(Cl)c2)c2ccccc23)c1 (stereo unspecified) | inactive: -25.2%
